Results reported in the supplement of paper PMC10126150.
Sequences with one replicate were seen in a single cluster, so their values are uncertain.

System: ATP
Test: switch fluorescence ratio, 500 uM ATP over buffer (Cy3 cluster intensity, sum of 5 cycles each) (fold (ratio)); higher = stronger signal-on switching upon ATP binding; sequences stand for … in TCGTCGGCAGCGTCAGATGTGTATAAGAGACAGTTTTTTTTTTTTTTTTTTTTTTTTT…TC
Details: aptamer strand: ATP DNA aptamer (quencher-CACCTGGGGGAGTATTGCGGAGGAAGG + anchor), 100 nM annealed; ATP concentration: 500 uM; one replicate
Summary of the method: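 The fluorescence ratio divides summed target-cycle Cy3 intensity by summed buffer-cycle Cy3 intensity for each cluster and is averaged per switch-domain sequence. Cy3-labelled switching-strand clusters on a modified Illumina MiSeq flow-cell were annealed to 100 nM quencher-labelled ATP aptamer, then imaged in selection buffer and again after 15 min with 500 uM ATP at 22 °C. Five such cycles were run, with NaOH stripping and re-annealing between them, and clusters outside 100-1000 RFU were excluded.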
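Also: ATP exposure 15 min at 22 °C before imaging.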

Row | Sequence | switch fluorescence ratio
1 | GACCGACAGC | 1.4
2 | CCGGAGGTGA | 1.4
3 | GCCTCACGGG | 1.01
4 | GATTGTGAG | 0.952
5 | TGAAGGTAGA | 1.03
6 | TTCGAATTTT | 0.979
7 | GACGCGGACT | 3.24
8 | GAGTCTAGAA | 0.988
9 | GGGTACATTC | 1.01
10 | ATCGTCGTCA | 0.967
11 | ACAACACAAA | 1.2
12 | TGGGAGGATC | 1.05
13 | ATGGTCCTGT | 0.953
14 | GATGGTTAGC | 0.994
15 | TTAGAACCAA | 1.01
16 | GAGTTCTACA | 1.03
17 | TCGGACGAAA | 4.44
18 | GCTCAATGGA | 0.969
19 | TTGTAGCTAC | 1.24
20 | CTGCGAATGG | 1.26
21 | AGCGTTTACA | 1.05
22 | TTGGACTTCC | 1.24
23 | TTTCTCTAGT | 1.02

Row | Sequence | switch fluorescence ratio
24 | GTAGTAAACG | 1.03
25 | GAACGATAAG | 1.01
26 | AAACTGGCGT | 1.04
27 | GAGTCCACGG | 1.01
28 | CGTCATGACT | 0.987
29 | TTCCTCTCGT | 1.09
30 | AAAAGTTAC | 1.08
31 | CTCCGGCTTT | 1.54
32 | ACAGGACAGT | 1.06
33 | TGTATTGATT | 0.938
34 | CTACAAGATA | 1.05
35 | TTAGACAAGT | 1.02
36 | TACTAGTCGG | 0.918
37 | GGTAATGGAG | 1.02
38 | TAGCTTAACC | 1.07
39 | GAACTCAGGG | 1.04
40 | CGATGAGAGG | 0.973
41 | TGTAGCTCTC | 1.02
42 | TGTGTCAACG | 0.968
43 | TCGTACAAAG | 1.04
44 | CTACGGCAAA | 2.46
45 | GACGGACTGG | 1.07
46 | TTATTATCGC | 0.998

Row | Sequence | switch fluorescence ratio
47 | GGTCCACTCT | 0.982
48 | ACCTACGCTA | 4.65
49 | GCCCCCCTTC | 1.01
50 | CAGCTATTTG | 1.04
51 | TCTAAGAGTA | 0.982
52 | ATGGTACTCC | 1.08
53 | GCAATCTATC | 1.51
54 | TTCTGACTGA | 1.03
55 | ACGGGATCTT | 0.995
56 | TAGCATGATC | 1.1
57 | CGCACGACGA | 1.52
58 | TAATCCTATC | 1.03
59 | ATCACGGCTG | 1.02
60 | AAAGTGAG | 1.04
61 | ATATCCCAAT | 1.13
62 | AATATGGACC | 1.02
63 | CGAAACCGCT | 1.37
64 | TCTACCATCC | 1.4
65 | ACAATTAGC | 1.01
66 | CTGGCATAGT | 1.04
67 | ATGAGATTTG | 1.04
68 | TATCGGGAT | 0.972
69 | CTCTTCGAG | 1.02

Row | Sequence | switch fluorescence ratio
70 | TTTGCACTTG | 1
71 | CGTGGGGTAA | 1.04
72 | GTGAGTTGTG | 1.01
73 | GCAAAAGTAC | 1.06
74 | TGTCAC | 0.989
75 | CATCGGTTAA | 0.983
76 | CAAAACTGTT | 1.09
77 | TTAACGCAGC | 1.39
78 | ACCGTAATGA | 1.23
79 | AAAAGGTAGT | 1.03
80 | AGAATTGGAT | 0.979
81 | TGTTGGGGC | 1
82 | AAGATTGACT | 1.03
83 | AATTGTCTCG | 0.995
84 | TTAATTTACG | 1.06
85 | TGTCACCCTC | 1.03
86 | CCGCGAGTGT | 1.54
87 | TAAACTTGAT | 1.02
88 | GGGATTCTT | 0.939
89 | AGAGTTCTT | 1.03
90 | AAACGTTGAG | 1.04
91 | AGATATGGTA | 0.972
92 | AAGTATAGAG | 1.01

Row | Sequence | switch fluorescence ratio
93 | GATTAACCAA | 1
94 | CAGAACAAGG | 0.994
95 | CCGGGTTGTG | 0.99
96 | GGAAAAGCAG | 1.01
97 | AGCGGAGGAG | 0.977
98 | AGGGTCCAGG | 1.4
99 | TAATGCCCCA | 0.945
100 | TTCGAGGAGC | 0.966
101 | GCACCATAGG | 0.993
102 | TTTTGACACA | 0.919
103 | TTGTTAACAC | 0.96
104 | ATCGTTTGGC | 0.954
105 | AAATGAGCTC | 0.999
106 | ACATCCTAAT | 0.987
107 | TAAATCTAGC | 1.04
108 | GATAATCGAA | 0.974
109 | AATTTCAACC | 1.03
110 | TTTCGGATAT | 1.35
111 | ACTGGAGACT | 1.01
112 | ACCGCGTCTG | 1.02
113 | GCATGCCCAT | 0.989
114 | ACGGGTGTGT | 1.04
115 | CATTGAGCGA | 1.03

Row | Sequence | switch fluorescence ratio
116 | TGTTCGTCTA | 1.04
117 | GGGTTTGTTC | 1.03
118 | CCCTTAATGT | 0.992
119 | TATGAAGCTC | 1.04
120 | TAGAGGTTT | 0.951
121 | AGTAAGGGAT | 0.924
122 | GATGGTCAAT | 1.01
123 | GGGTGTCGCC | 0.955
124 | CTGGCACGTT | 1
125 | TTAGAATAAC | 2.57
126 | AAGGTCCGTC | 1.03
127 | CGCACTGAGG | 0.978
128 | CGTACATTAA | 1.01
129 | GATATGATAA | 0.968
130 | TGCTTCCTAT | 1.09
131 | CCAAAACCGT | 1.05
132 | TGGAGAATAG | 1.09
133 | TGTGAGATGT | 0.991
134 | GAGAGCTGGG | 0.988
135 | TCCTCGTTCC | 1.07
136 | GTCCTCGTCA | 0.985
137 | ACTAGGGCAC | 1.04
138 | CTGAAATTCG | 1

Row | Sequence | switch fluorescence ratio
139 | TTTGGTGCAC | 0.991
140 | GACCATTCTC | 1.03
141 | TCGTTGGCGA | 0.974
142 | TCGACTTATA | 1.04
143 | AGACGGTACT | 1.35
144 | CACCAAGGGT | 0.984
145 | ATATCCTCTG | 1.08
146 | ACCCTTTCCC | 1.12
147 | CAAGCATCCA | 1.01
148 | GTCATCGCAT | 1.18
149 | TACACTC | 1.05
150 | CCTCATTCAG | 1.13
151 | AAATCTGTGC | 1.02
152 | TGTGGTCACT | 1.02
153 | ACAACAAAGT | 1.01
154 | CTGTGCATCT | 1.01
155 | AGGTCGAGTG | 0.986
156 | TCAGGGAATC | 1.07
157 | GGTTTCTTAT | 1.04
